In all, about 110,000 compounds went through this assay and about 230 (0.21%) showed an effect of 50% or more. Some of the results follow.
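Note: 30 min substrate incubation versus DMSO and 10 µM JCP410 controls.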

In this test the target is DPAP1 (Plasmodium falciparum, UniProt Q8IIJ9). Description: primary screen, percent inhibition; read by cleavage of a fluorogenic dipeptide substrate; higher = more effect of the substance. More on the design: species or system P. falciparum D10 trophozoite lysates; single well.
DPAP1, sequence (Q8IIJ9 whole entry, looked up): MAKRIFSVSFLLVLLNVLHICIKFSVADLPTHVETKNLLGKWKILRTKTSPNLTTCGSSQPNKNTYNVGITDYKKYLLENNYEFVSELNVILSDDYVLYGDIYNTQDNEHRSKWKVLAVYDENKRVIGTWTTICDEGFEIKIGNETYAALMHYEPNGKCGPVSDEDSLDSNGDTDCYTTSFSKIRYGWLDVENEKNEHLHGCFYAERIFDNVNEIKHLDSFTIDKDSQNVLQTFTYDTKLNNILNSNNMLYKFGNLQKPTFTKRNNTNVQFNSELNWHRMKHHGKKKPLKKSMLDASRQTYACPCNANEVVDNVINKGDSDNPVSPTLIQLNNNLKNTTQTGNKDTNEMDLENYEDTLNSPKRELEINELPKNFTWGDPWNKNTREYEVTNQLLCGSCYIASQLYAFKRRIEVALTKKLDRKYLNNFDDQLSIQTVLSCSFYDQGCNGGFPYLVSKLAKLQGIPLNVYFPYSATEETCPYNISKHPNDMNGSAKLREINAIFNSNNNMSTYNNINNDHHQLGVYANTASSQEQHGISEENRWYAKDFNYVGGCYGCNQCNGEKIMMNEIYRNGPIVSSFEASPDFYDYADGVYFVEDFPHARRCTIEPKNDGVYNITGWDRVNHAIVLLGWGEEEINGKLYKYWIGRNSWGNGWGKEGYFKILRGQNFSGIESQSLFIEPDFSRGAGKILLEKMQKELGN
For the compound `O=C(Nc1cccc(C(F)(F)F)c1)c1cccnc1N1CCOCC1`, the “% Inhibition @ 10 uM” value is 5.03%.
As for `CCC[C@H](NC(=O)[C@H](CS(=O)(=O)NCC(C)C)NC(=O)OCc1ccccc1)C(=O)c1nc2ccccc2o1`, the “% Inhibition @ 10 uM” value was -1.83%.
The value for `CCOC(=O)C(O)C1CCc2c([nH]c3ccc(C4CCCCC4)cc23)C1=O` (centres unmarked) was -0.693%; that for `Cc1ccc(S(=O)(=O)N2CCC(C(=O)Nc3nc4c(s3)CC(c3ccccc3)CC4)CC2)cc1` (centres unmarked) was 0.635%; that for `CCN1C(=O)S/C(=C/c2cc(Cl)cc(OC)c2O)C1=O` was -11.7%.
Then `COc1cc(C(=O)n2nc(-c3ccco3)nc2NCc2ccccc2Cl)cc(OC)c1OC`, with -4.75%.
For the compound `COc1ccc(C(=O)N/C(=C\c2ccc3c(c2)OCO3)C(=O)O)cc1`, the “% Inhibition @ 10 uM” value is recorded as -1.35%.
For the compound `COc1ccc(CCNc2oc(COc3cccc(C)c3)nc2C#N)cc1`, the “% Inhibition @ 10 uM” value was -1.98%.
Then `COc1ccc2cc(-c3nnc(NCc4ccccc4)s3)c(=O)oc2c1`, with -2.92%.
For `O=C(CN1CC2CC(C1)c1cccc(=O)n1C2)c1ccc2cc[nH]c2c1` (centres unmarked), the “% Inhibition @ 10 uM” value is on record as -6.92%.
Turning to `O=Cc1cn(CCCOc2ccccc2Cl)c2ccccc12`, the “% Inhibition @ 10 uM” value is on record as -4.35%.
The value for `O=C(Cc1ccccc1)N1CCN(c2ccc(F)cc2)CC1` was -17.2%; that for `O=C(Nc1cc([N+](=O)[O-])ccc1Cl)c1cccnc1` was -0.833%.
Then `O=C(NCc1ccccc1)c1ccccc1C(=O)Nc1cccc2ccccc12`, with 1.7%.
Then `Clc1ccccc1OCCN1CCCCC1`, with 2.94%.
For the compound `CCOC(=O)C1=C(CN2CCN(C(=O)c3ccco3)CC2)NC(=O)NC1c1ccc(Cl)cc1` (centres unmarked), the “% Inhibition @ 10 uM” value was -2.83%.
The value for `Cc1cc(Oc2nc3c(C)cccn3c(=O)c2/C=C(\C#N)C(=O)N2CCOCC2)ccc1Cl` was -1.43%; that for `Cc1cccc(N2CCN(C(=O)/C=C/c3ccc4c(c3)OCO4)CC2)c1C` was 1.4%.
For `COC(=O)N1c2ccccc2C=Cc2ccccc21`, the “% Inhibition @ 10 uM” value is -2.18%.
The value for `C=Cc1ccc(Cn2c(C(=O)O)c(CNCCCSC3CCCCC3)c3ccccc32)cc1` was -1.44%.
The value for `Cc1ccc(S(=O)(=O)Nc2nc3ccccc3nc2Nc2cccc(C(=O)O)c2)cc1` was 3.01%; that for `Cc1nc2ccccc2n1CCc1nc2c3ccccc3nc(NCCc3ccccc3)n2n1` was 4.16%; that for `CCCCC(=O)Nc1ccc(N(CC)CC)cc1C` was -2.67%.
The value for `CCCc1cc(O)n2nc(Cc3ccccc3)c(-c3ccccc3)c2n1` was -3.44%; that for `Cn1c(=O)c2c(nc(NCCOc3ccc(C(C)(C)C)cc3)n2C)n(C)c1=O` was 0.484%.
Consider `O=C1NC(c2cccs2)c2c(-c3cccs3)n[nH]c21` (centres unmarked), for which the “% Inhibition @ 10 uM” value is reported as -9.18%.
Then `Cc1nn(-c2ccccc2)c(-n2cccc2)c1C(=O)N1CCOCC1`, with -3.35%; and `CC(C)N(Cc1ccccc1)C(=O)CNC(=S)N(CCCN1CCOCC1)Cc1cccs1`, with -0.406%.
`NS(=O)(=O)c1ccc2c(c1)C1C=CCC1C(c1ccc(Cl)cc1Cl)N2` (centres unmarked): the “% Inhibition @ 10 uM” value is 2.05%.
Then `Cc1nn(-c2ccccc2)c(O)c1/C=N/OCc1ccccc1`, with -2.14%.
The value for `COC(=O)CNc1nc(Cl)nc(Nc2ccc(Cl)cc2)n1` was -2.55%; that for `COc1ccccc1C1N(O)C(C)(C)C(c2ccccc2)=[N+]1[O-]` (centres unmarked) was 5.23%.
The value for `O=C1CSC2(C(=O)Nc3ccccc32)N1c1ccc(Br)cc1` (centres unmarked) was 2.76%; that for `CSc1ccc(CCNC(=O)CN(C)c2nnc(N3CCCC3=O)s2)cc1` was -6.12%.
As for `COc1ccc(C(=O)Nc2ccc(-c3nc4ncccc4o3)cc2)cc1Br`, the “% Inhibition @ 10 uM” value is -5.49%.
The value for `CCOC(=O)c1c(C)[nH]c(C)c1S(=O)(=O)N(CC(C)C)CC(C)C` was -6.53%; that for `Cc1ccc(C)c(S(=O)(=O)NCC(=O)N2CCN(c3ccccc3)CC2)c1` was -2.92%; that for `Cn1c(SCC(=O)NC2CCCC2)nc2c(c1=O)SCC2` was 0.205%.
`C=CCNc1oc(COc2ccccc2OC)nc1C#N`: the “% Inhibition @ 10 uM” value is given as -2.75%.
The value for `N#Cc1c(N)c(C(=O)c2ccc(Br)cc2)n2c1CCC2` was -4.21%; that for `Cc1ccc2nc3c(cc(C#N)c(=N)n3CC3CCCO3)c(=O)n2c1` (centres unmarked) was -1.47%.
Then `CN1CCCN(Cc2cccc(C(F)(F)F)c2)CC1`, with -0.0404%.
Then `COC(=O)c1ccc(NC(=O)c2cccc(Br)c2)cc1`, with -3.35%; and `CC(=O)Nc1ccc(NC(=O)C2CC2c2ccccc2)cc1` (centres unmarked), with 5.93%; and `O=C(COCc1cc(-c2ccc3c(c2)OCO3)on1)Nc1cccnc1`, with -1.86%.
Regarding `OCCSc1nnnn1-c1ccccc1`, the “% Inhibition @ 10 uM” value is -5.35%.
The value for `O=C(O)C1CCCN1C(=O)Cc1ccccc1` (centres unmarked) was -1.69%; that for `C=CCN1C(=O)C2(Nc3ccccc3C(=O)N2c2ccccc2OC)c2ccccc21` (centres unmarked) was 2.48%.
Consider `O=C(Cc1ccccc1)NCc1cccs1`, for which the “% Inhibition @ 10 uM” value turned out to be 0.163%.
The value for `Cc1cc(C)c(C(=O)/C=C/c2ccc3c(c2)OCO3)c(O)n1` was -0.197%.
In the case of `C=Cc1cccc(C(=O)N[C@@H](C[C@H](C)c2ccccc2)C(=O)N[C@@H](CC)C(=O)c2nc3ccccc3o2)c1`, the “% Inhibition @ 10 uM” value is 1.16%.
Then `N#Cc1ccc(NC(=O)c2cccc(C(F)(F)F)c2)cc1`, with 1.83%.
The value for `Cc1ccc(OCC(=O)Nc2cccc(C)c2C)cc1` was -1.42%.
Then `COc1ccc(-c2nnc(SCC(=O)NCc3ccccc3)n2-c2ccccc2)cc1OC`, with -1.68%; and `Cc1sc2ncn(CC(=O)N3CCC(C)CC3)c(=O)c2c1-c1ccc(Br)cc1`, with 0.163%.
Regarding `CC1=CC2=NC(=O)/C(=C\c3ccc(OCc4ccc(C)cc4)cc3)C(=N)N2O1`, the “% Inhibition @ 10 uM” value was -1.43%.
Then `Cc1cccc(NCc2ccc(C)o2)c1`, with -1.5%.
On to `CC(C)C[C@H](NC(=O)OCc1ccccc1)C(=O)NC(CCc1ccccc1)C(O)C[N+](=O)[O-]` (some centres unmarked), for which the “% Inhibition @ 10 uM” value stood at 0.744%.
Then `Cc1ccccc1C(=O)Nc1ccc(N)cc1`, with -10.2%; and `COc1cccc(C(=O)Nc2ccc(S(=O)(=O)Nc3nccc(C)n3)cc2)c1`, with -4.18%.
The value for `CCC(C)C(=O)Nc1ccc(S(=O)(=O)N2CCC(C)CC2)cc1` (centres unmarked) was -1.63%; that for `Cc1c(C(=O)NCCCN2CCCC2=O)oc2c1-c1nn(Cc3cccc(Cl)c3)cc1CC2` was 7.13%.
As to `COc1ccccc1C1C2=C(O)CC(C)(C)CC2=Nc2ccc3ncccc3c21` (centres unmarked), the “% Inhibition @ 10 uM” value was -2.77%.
The value for `O=C(O)c1ccccc1N(Cc1ccccc1)C(=O)c1ccco1` was 0.512%.
Regarding `CC(C)(C)NC(=O)Cn1cc(C(=O)c2ccco2)c2ccccc21`, the “% Inhibition @ 10 uM” value was -1.33%.
Then `CC1(C)CC(=O)C2=C(C1)NC(=O)CC2c1ccc(-c2ccccc2)cc1` (centres unmarked), with 9.42%.
Take `Cc1[nH]c2ccccc2c1Cc1nnc(SCC(=O)NCc2ccco2)o1`: the “% Inhibition @ 10 uM” value is -2.75%.
`Cc1cc2nc(C[n+]3ccc4ccccc4c3)[nH]c2cc1C`: the “% Inhibition @ 10 uM” value is given as 2.38%.
Then `CCC1CCCCN1S(=O)(=O)c1ccc(S(=O)(=O)N2CCN(c3ncccn3)CC2)cc1` (centres unmarked), with 3.81%; and `Cc1nn2c3ccccc3n(CC(=O)c3ccc(Br)cc3)c2nc1=O`, with 0.324%.
The value for `O=S(=O)(c1ccc(-c2csc(Nc3ccc(Cl)cc3)n2)cc1)N1CCCC1` was -3.79%; that for `CC(C)C(C(=O)Nc1nc2ccccc2s1)N1C(=O)c2ccccc2C1=O` (centres unmarked) was 0.331%.
Then `Cc1nc2cc(C(=O)O)ccc2n1C1CCCCC1`, with 4.54%.
`O=[N+]([O-])c1ccc(C2Nc3ccccc3C(c3ccccc3)(c3ccccc3)O2)s1` (centres unmarked): the “% Inhibition @ 10 uM” value is listed as -4.01%.
As for `COc1ccc(CCNC(=O)c2cccc3c2C(=O)N(C2CCCCC2)C3)cc1OC`, the “% Inhibition @ 10 uM” value is given as -4.69%.
Take `Cc1cc(C)c2c(n1)nn1c(C)c(CCC(=O)NC(C)c3cccs3)c(C)nc21` (centres unmarked): the “% Inhibition @ 10 uM” value is on record as -2.67%.
For the compound `CC(Sc1nc(-c2ccccc2)cc(C(F)(F)F)n1)C(=O)NCc1cccnc1` (centres unmarked), the “% Inhibition @ 10 uM” value is listed as -3.92%.
Then `COc1ccc(Cl)cc1NC(=O)CN(c1ccc(OC)c(OC)c1)S(C)(=O)=O`, with -7.09%.
For the compound `N#Cc1ccccc1Cn1c(=O)n(Cc2ccc(C(=O)NCc3ccco3)cc2)c(=O)c2sccc21`, the “% Inhibition @ 10 uM” value is -9.28%.
The value for `COc1cccc(C(=O)N2CCN(Cc3ccccc3F)CC2)c1` was 0.0504%.
`CCOc1ccc(C2c3c(oc4ccc(F)cc4c3=O)C(=O)N2Cc2ccc3c(c2)OCO3)cc1` (centres unmarked): the “% Inhibition @ 10 uM” value is recorded as -5%.
`CC1(C)CC2=Nc3nc(-c4ccccc4)nn3C(c3ccccc3)C2=C(O)C1` (centres unmarked): the “% Inhibition @ 10 uM” value turned out to be 2.36%.
Then `CCN(CC)CCN(CC)Cc1ccccc1`, with 0.0792%.
As to `O=C(CN1C(=O)c2cccc3cccc(c23)C1=O)N1CCCC1`, the “% Inhibition @ 10 uM” value is -1.2%.
The value for `COc1ccc(NC(=O)CNS(=O)(=O)c2cc(Cl)ccc2Cl)cc1OC` was 7.67%.
Then `O=C(NCc1ccc(F)cc1)C1CCN(S(=O)(=O)c2ccc3[nH]c(-c4ccccc4)nc3c2)CC1`, with 3.08%.
The value for `N#CCNC(=O)[C@H](CS(=O)(=O)Cc1ccccc1)NC(=O)N1CCOCC1` was -5.04%; that for `Cc1cc(C)cc(NC(=O)c2cnccn2)c1` was 2.02%; that for `Cc1cc(/N=C2/C=C(O)CC(C)(C)C2)[nH]n1` was 1.91%.
Take `Cc1ccccc1N(CC(=O)NC(C)(C)C)S(C)(=O)=O`: the “% Inhibition @ 10 uM” value was -1.32%.
Then `CCOC(=O)Nc1ccc2c(c1)Nc1ccccc1[S+]2O` (centres unmarked), with 3.06%; and `Cc1ccc(N2C(=O)C(Cl)=C(Nc3ccc(F)cc3)C2=O)cc1`, with -3.63%; and `CCN(CC)CCN(C)Cc1c(F)cccc1F`, with 4.68%.
The value for `O=C(CCC(=O)N1Cc2ccccc2Oc2ncccc21)NCCc1ccc(Cl)cc1` was 7.7%; that for `CCSc1nc2c(cc1C#N)CCC2` was -4.94%; that for `O=[N+]([O-])c1ccc2c(c1)C1C=CCC1C(c1ccc(Br)cc1)N2` (centres unmarked) was -4.11%.
The value for `O=C(Nc1cc(Cl)c(Cl)cc1Cl)C1CCN(S(=O)(=O)c2ccccc2)CC1` was -3.41%; that for `CCCCCCn1c(=O)c(C(=O)Nc2ccc(Cl)cn2)c(O)c2ccccc21` was 3.05%.
